Assay results reported in PubChem BioAssay AID2528 (National Center for Advancing Translational Sciences (NCATS), 2010).
Hit rate of the full screen: of about 350,000 compounds, about 700 (0.2%) were called active. The call rests on the fitted dose curve; in most records, active means well fitted inhibition curve with a large enough effect; inconclusive means small, poorly fitted or top-dose-only effect; inactive means flat fitted curve, though single readings scatter. This is a selection; strong and weak results do not stand in their true shares.

Molecular target: RecQ-like DNA helicase BLM (Homo sapiens) (UniProt P54132)
UniProt P54132, sequence (P54132 whole entry, looked up): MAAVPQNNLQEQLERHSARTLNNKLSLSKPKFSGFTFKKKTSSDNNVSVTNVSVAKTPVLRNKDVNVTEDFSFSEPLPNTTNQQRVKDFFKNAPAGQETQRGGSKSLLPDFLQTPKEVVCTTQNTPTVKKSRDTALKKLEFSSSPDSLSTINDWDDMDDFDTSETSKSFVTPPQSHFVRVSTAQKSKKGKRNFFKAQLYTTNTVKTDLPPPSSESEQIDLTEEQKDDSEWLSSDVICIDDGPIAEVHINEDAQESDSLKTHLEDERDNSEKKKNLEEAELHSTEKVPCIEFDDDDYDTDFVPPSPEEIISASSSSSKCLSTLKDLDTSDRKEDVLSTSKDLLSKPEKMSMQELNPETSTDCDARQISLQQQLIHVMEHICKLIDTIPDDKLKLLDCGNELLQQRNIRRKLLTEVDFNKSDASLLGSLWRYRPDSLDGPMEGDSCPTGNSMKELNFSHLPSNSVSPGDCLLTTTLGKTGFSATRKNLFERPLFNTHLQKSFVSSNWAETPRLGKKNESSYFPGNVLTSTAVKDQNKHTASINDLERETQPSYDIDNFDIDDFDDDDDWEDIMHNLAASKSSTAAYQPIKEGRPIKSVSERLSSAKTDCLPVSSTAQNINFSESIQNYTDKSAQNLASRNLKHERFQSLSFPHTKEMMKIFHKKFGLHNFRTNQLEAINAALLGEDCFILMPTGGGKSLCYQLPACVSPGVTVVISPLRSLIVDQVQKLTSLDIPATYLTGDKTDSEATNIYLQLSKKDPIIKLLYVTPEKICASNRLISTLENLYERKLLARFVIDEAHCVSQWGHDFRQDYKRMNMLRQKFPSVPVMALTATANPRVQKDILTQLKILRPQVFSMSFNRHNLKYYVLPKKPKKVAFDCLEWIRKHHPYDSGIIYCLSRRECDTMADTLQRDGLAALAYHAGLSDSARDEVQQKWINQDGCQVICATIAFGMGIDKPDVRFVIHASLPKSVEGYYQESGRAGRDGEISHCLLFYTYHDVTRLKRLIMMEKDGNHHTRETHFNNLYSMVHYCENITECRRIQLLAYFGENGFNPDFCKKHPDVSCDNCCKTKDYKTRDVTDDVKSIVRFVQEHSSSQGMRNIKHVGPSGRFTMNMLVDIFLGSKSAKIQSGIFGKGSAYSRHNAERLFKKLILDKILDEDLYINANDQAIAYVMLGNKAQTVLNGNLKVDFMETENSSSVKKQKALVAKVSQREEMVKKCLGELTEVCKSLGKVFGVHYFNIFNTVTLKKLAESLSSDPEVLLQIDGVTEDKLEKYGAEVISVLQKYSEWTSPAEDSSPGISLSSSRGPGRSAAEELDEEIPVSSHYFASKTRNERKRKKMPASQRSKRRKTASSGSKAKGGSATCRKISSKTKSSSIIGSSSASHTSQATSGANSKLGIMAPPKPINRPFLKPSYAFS
Assay: qHTS Assay for Inhibitors of Bloom's syndrome helicase (BLM); further: nearly all actives have a fitted effect of over 35% in size
Settings: recombinant BLM DNA unwinding, fluorescence dequenching; series mostly up to 56.1 µM; activity change, negative = inhibition: at the top concentration
From the text: Survival of cells and the faithful propagation of the genome depend on elaborate mechanisms of detecting and repairing DNA damage. Treatment of advanced cancer relies on radiation therapy or chemotherapy, which kill cancer cells by causing extensive DNA damage. It is often found, that cancer cells develop resistance to therapy through enhanced activity of DNA repair functions; this has led to an increased interest in developing drugs that interfere with DNA repair, which could sensitize cancer cells to conventional therapy.
This validation qHTS assay pertains to human BLM, which is important in resolving abnormal DNA structures formed during replication or homologous recombination. Shutting down the expression of BLM leads to chromosomal instability and higher radiation sensitivity in cultured cells.
The validation assay was a fluorescence quenching based kinetic qHTS for BLM Helicase DNA unwinding. The activity was measured as ATP-dependent separation of a 20-bp DNA duplex extended by 30-nt single-stranded tails (forked duplex). The forked DNA substrate was tagged with rhodamine fluorophore (carboxytetramethyl rhodamine, TAMRA) and BHQ-2 (Black Hole Quencher 2) dark quencher. Strand separation results in an increase in the fluorescence of TAMRA (excitation 525 nm, emission 598 nm). This substrate construct operates in a red-shifted region where very few compound library members have been noted to fluoresce (PubChem AIDs 593 and 594). An additional feature of the assay is the inclusion of 2.5 ug/ml poly (dIdC), to reduce interference by compounds such as DNA intercalators, a major source of false inhibitors.
Ian Hickson, University of Oxford
Opher Gileadi, Structural Genomics Consortium, University of Oxford
Screening Center PI: Austin, C.P.
Screening Center: NIH Chemical Genomics Center [NCGC]
Three uL of reaction buffer (25 mM Tris-HCl (pH 8.0), 5 mM NaCl, 2 mM MgCl2, 1mM DTT, 0.01% Tween- 20, and 2.5 ug/ml poly(dI-dC), including enzyme (50 nM BLM), were dispensed into a 1536-well Greiner black assay plate via solenoid-valve based nanoliter dispensers. Compounds (23 nl each in columns 5-48) and control (23 nl each in column 2 as dose-response) were transferred via a Kalypsys pintool equipped with a 1536-pin array. The plates were incubated for 15 min at room temperature, and then 1 ul of substrates (200 nM DNA and 2 mM ATP, final concentrations) was added to start the reaction. The plate was transferred into a ViewLux high-throughput CCD imager where the reaction progress was measured in a discontinuous kinetic mode (two reads spaced 2 hours apart, with intermediate room temperature incubation of the covered assay plate) by using standard red-fluorescence optics (excitation filter 525 nm, emission filter 598 nm). Enzyme-free and vehicle (DMSO) controls were included for signal normalization.
Potency means the concentration at half of the fitted maximal effect.

Structure (SMILES)	Potency	activity change, negative = inhibition
NCC(CC(=O)O)c1ccc(Cl)cc1 (stereo unspecified)	inactive	
NC[C@H](CC(=O)O)c1ccc(Cl)cc1		inactive: -1.14%
CCCCC/C=C\C/C=C\C/C=C\C/C=C\CCCCCC(=O)NCCO	inactive	
CC(NC(C)(C)C)C(=O)c1cccc(Cl)c1 (stereo unspecified)	inactive	
CC(C)(C)c1o[nH]c(=O)c1C[C@H](N)C(=O)O		inactive: -4.95%
O=C(Cc1ccc(Cl)c(Cl)c1)N1CCCC[C@H]1CN1CCCC1		inactive: -1.96%
C=C(C)[C@H]1CN[C@H](C(=O)O)[C@@H]1CC(=O)O		inactive: -3.94%
COc1cc(-c2ccc(=O)[nH]n2)ccc1OC(F)F	inactive	
CCCCCCCCC(=O)NCc1ccc(O)c(OC)c1	inactive	
CC[C@H](CO)NC(=O)[C@H]1C=C2c3cccc4[nH]cc(c34)C[C@@H]2N(C)C1		inactive: -6.75% [at 21.4 µM]
NC(=NCCCC(N)C(=O)O)N[N+](=O)[O-] (stereo unspecified)		inactive: 3.32%
N#CC(C#N)=Cc1ccc([N+](=O)[O-])c(O)c1		inactive: -6.74%
CNC[C@H](O)c1ccc(O)cc1		inactive: 3.74% [at 21.4 µM]
CC(C)[C@@]1(NC(=O)[C@@H]2C[C@H]3c4cccc5[nH]cc(c45)C[C@@H]3N(C)C2)O[C@]2(O)[C@H]3CCCN3C(=O)[C@H](Cc3ccccc3)N2C1=O		inactive: -0.895% [at 21.4 µM]
C/C(=C/CCC(C)[C@H]1CC[C@@]2(C)C3=C(CC[C@]12C)[C@@]1(C)CCC(=O)C(C)(C)[C@@H]1CC3)C(=O)O (stereo partly specified)	active: 25.1 µM	
C[C@H](NC(C)(C)C)C(=O)c1cccc(Cl)c1		inactive: 5.65% [at 21.4 µM]
CC(C)(O)[C@@H]1C2OC(=O)[C@@H]1[C@]1(O)C[C@H]3O[C@]34C(=O)O[C@H]2[C@]14C		inactive: -4.57%
C[C@]12CCC(=O)C=C1CC[C@@H]1C2CC[C@]2(C)C(=O)CCC12 (stereo partly specified)		inactive: -4.63%
CN[C@H](C)[C@H](O)c1ccccc1		inactive: -5.23%
CC(=O)NCCc1c[nH]c2ccccc12	inactive	
CC(C)c1ccc(N2C(=O)NC(=O)/C(=C/C=C/c3ccco3)C2=O)cc1		inactive: -21.4%
C[C@@H](N)[C@@H](O)c1ccc(O)c(O)c1		inactive: 0.868%
O=c1[nH]c2ccccc2n1C1CCN(CCCC(c2ccc(F)cc2)c2ccc(F)cc2)CC1	inactive	
CCCCC/C=C\C/C=C\C/C=C\C/C=C\CCCC(=O)O	inactive	
CC12C=CC(=O)C=C1CCC1C2=CCC2(C)C1CC[C@@H]2C(=O)CN1CCN(c2cc(N3CCCC3)nc(N3CCCC3)n2)CC1 (stereo partly specified)		inactive: -14.6%
CC(C)C[C@H]1C(=O)N2CCC[C@H]2[C@]2(O)O[C@](NC(=O)[C@@H]3C=C4c5cccc6[nH]c(Br)c(c56)CC4N(C)C3)(C(C)C)C(=O)N12 (stereo partly specified)		inactive: -18.5%

Structure (SMILES)	Potency	activity change, negative = inhibition
O[C@H]1CCCC[C@H]1N1CCC(c2ccccc2)CC1	inactive	
CCNC(=O)[C@@H]1O[C@@H](n2cnc3c(N)ncnc32)[C@H](O)[C@H]1O		inactive: -0.191%
CC[n+]1c(-c2ccccc2)c2cc(N)ccc2c2ccc(N)cc21		inactive: -7.19%
N[C@H](CP(=O)(O)O)C(=O)O		inactive: -1.57%
CP(=O)(O)CCCN	inactive	
Cc1cccc(OCCn2cccc2/C=C2/C(=O)NC(=O)N(Cc3ccco3)C2=O)c1	active: 25.1 µM	
O=C(O)CNC(=O)[C@@H](CS)Cc1ccccc1		inactive: -1.54% [at 21.4 µM]
C[C@H]1O[C@H]1P(=O)(O)O	inactive	
N[C@H]1C[C@H]1c1ccccc1		inactive: 3.91% [at 21.4 µM]
O=c1[nH]cnc2[nH]ncc12	inactive	
CC(C)(O)C1C2OC(=O)C1C1(O)CC3OC34C(=O)OC2C14C (stereo unspecified)		inactive: 1.29%
Cc1cc(O)c2c(c1)C(=O)c1cc(O)cc(O)c1C2=O		inactive: -19%
CNC(=O)Oc1ccc2c(c1)[C@]1(C)CCN(C)[C@@H]1N2C	inactive	
CC(=O)N1CCN(c2ccc(OC[C@@H]3CO[C@@](Cn4ccnc4)(c4ccc(Cl)cc4Cl)O3)cc2)CC1		inactive: 1.83%
O=c1c2ccccc2nc(/C=C/c2ccc(O)cc2)n1-c1cccc(O)c1	active: 25.1 µM	
CCC(CO)NC(=O)C1C=C2c3cccc4[nH]cc(c34)CC2N(C)C1 (stereo unspecified)	inactive	
N[C@@H](Cn1cc(I)c(=O)[nH]c1=O)C(=O)O		inactive: 0.248%
O=c1c(O)c(-c2ccc(O)c(O)c2)oc2cc(O)cc(O)c12	inactive	
CC(C)NC[C@H](O)COc1cccc2[nH]ccc12	inactive	
CNCC(O)c1ccc(O)cc1 (stereo unspecified)		inactive: 1.08%
CC(=O)C1CC[C@H]2C3CC[C@@H]4CC(O)CC[C@@]4(C)C3CC[C@]12C (stereo partly specified)		inactive: -6.83%
c1ccc(CCCN2CCN(CCOC(c3ccccc3)c3ccccc3)CC2)cc1		inactive: -4.74%
CC(C)C[C@H]1C(=O)N2CCC[C@H]2[C@]2(O)O[C@](NC(=O)[C@@H]3C=C4c5cccc6[nH]c(Br)c(c56)C[C@H]4N(C)C3)(C(C)C)C(=O)N12		inactive: -10.5%
CCN(CC)C(=O)N[C@@H]1C[C@H]2c3cccc4[nH]cc(c34)C[C@@H]2N(C)C1	inactive	
Cc1cccc2c3c(ccc12)C1=C(C(=O)C3=O)[C@@H](C)CO1		inactive: -9.54%
